Here are results for 83 variants from the RNAGym collection of RNA variant scans (doi:10.1073/pnas.2313332121).

Variants at the background level are over-represented here.

B1: TPR 5TU (parent)
chain: GGAUCUUCUCGAUCUAACAAAAAAGACAAAUCUGCCACAAAGCUUGAGAGCAUCUUCGGAUGCAGAGGCGGCAGCCUUCGGUGGCGCGAUAGCGCCAACGUUCUCAACUAUGACACGCAAAACGCGUGCUCCGUUGAAUGGAGUUUAUCAUG

This series covers variants of B1. The experiment in a line: polymerase ribozyme fitness, log enrichment relative to wild type (log ratio); higher = more active; in vitro selection for triplet polymerase activity. The essentials:
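Each subunit of a heterodimeric triplet polymerase ribozyme was mutagenized into a library by PCR, transcribed, and subjected to one round of in vitro selection, run in triplicate. Libraries were annealed with a biotinylated primer, the partner subunit and triplets, incubated frozen at −7 °C, and extended constructs were gel-excised, captured on streptavidin beads and recovered by RT-PCR. Input and output libraries were sequenced on Illumina, keeping genotypes with ≥10 input reads and ≥1 read per output. Fitness is log base 2 of genotype enrichment divided by wild-type enrichment, from inverse-variance-weighted replicate averages.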
C36U G65A G86A G88A C108G G124A C125U G141A: the “polymerase ribozyme fitness (log ratio)” value was at most -4.2. Consider G34A G58C A73C G84A G94A C108A, for which the “polymerase ribozyme fitness (log ratio)” value was at most -4.2.

For the variant C35G C85G U134A G136A, the “polymerase ribozyme fitness (log ratio)” value is at most -4.2. Turning to C35U C72G C99A, the “polymerase ribozyme fitness (log ratio)” value was at most -4.2. Take C35U G117U: the “polymerase ribozyme fitness (log ratio)” value was 0.973. Consider C36G A39C C75G U101G U109G, for which the “polymerase ribozyme fitness (log ratio)” value was at most -4.2. On to C35U U101G A110U A138G, for which the “polymerase ribozyme fitness (log ratio)” value is at most -4.2. Turning to G34U A40G U55G U56A U101A U102G G126A, the “polymerase ribozyme fitness (log ratio)” value was at most -4.2. Turning to C36A A73G C96U A121C C131U, the “polymerase ribozyme fitness (log ratio)” value is at most -4.2. Regarding C35A A52C U53C, the “polymerase ribozyme fitness (log ratio)” value was at most -4.2.

Turning to G34C C95U A107U U148A, the “polymerase ribozyme fitness (log ratio)” value is at most -4.2.

As for A37C G50U G59U G86U, the “polymerase ribozyme fitness (log ratio)” value was -2.65. Turning to C35G G68C C125A, the “polymerase ribozyme fitness (log ratio)” value is -4.18. C36U U44C C51U C79U C85G A98C C118U A147U: the “polymerase ribozyme fitness (log ratio)” value was at most -4.2. For C35U G88A, the “polymerase ribozyme fitness (log ratio)” value is -4.1.

Consider A37C C57A, for which the “polymerase ribozyme fitness (log ratio)” value was found to be 0.0979. In the case of C36U A73G G83A G92A A98C U111G A120U, the “polymerase ribozyme fitness (log ratio)” value was at most -4.2.

Take C35U G128U A138C A142C: the “polymerase ribozyme fitness (log ratio)” value is at most -4.2.

For C35U C36A C76U C85U C93U G141A, the “polymerase ribozyme fitness (log ratio)” value is at most -4.2.

Take G34A C79U U144A: the “polymerase ribozyme fitness (log ratio)” value was at most -4.2. Consider C35G C51U C54U U56A A89G G94U C99U A137U, for which the “polymerase ribozyme fitness (log ratio)” value was at most -4.2. With G34U U56A, the “polymerase ribozyme fitness (log ratio)” value was -1.7.

Take A37C C93U: the “polymerase ribozyme fitness (log ratio)” value was -1.64.

For the variant A37C G88U U90A C105G A107U A113C A137U U139A G152U, the “polymerase ribozyme fitness (log ratio)” value is at most -4.2. C36U U44A G46C C57A C87U U148G: the “polymerase ribozyme fitness (log ratio)” value was at most -4.2. Take C35G A66G C85U C108G A138G U146C: the “polymerase ribozyme fitness (log ratio)” value was at most -4.2. For C36A G59A U144G the value was -3.49; for C35U C99G A119C G141U, -1.83.

For G34C G50C U101G C116G A147C, the “polymerase ribozyme fitness (log ratio)” value is at most -4.2. In the case of C35U C95U A107C U109A A115U, the “polymerase ribozyme fitness (log ratio)” value is at most -4.2. For C36U C69G A89C A97C A122C G141U U151G the value was at most -4.2. On to C35G U55A C95A U102G, for which the “polymerase ribozyme fitness (log ratio)” value was at most -4.2.

On to C35U A47C G83U A120U A137C, for which the “polymerase ribozyme fitness (log ratio)” value was at most -4.2. As for C36A C99A C114U U135G, the “polymerase ribozyme fitness (log ratio)” value is at most -4.2.

Turning to C36G G86A G117U U130A G140A, the “polymerase ribozyme fitness (log ratio)” value was at most -4.2.

For the variant C35U A49C U56A G81U A89C C95U C118G, the “polymerase ribozyme fitness (log ratio)” value is at most -4.2.

On to U33G G42C G88U G124U C125G, for which the “polymerase ribozyme fitness (log ratio)” value was -3.86. Consider A37C G83U C93G A97G G100U, for which the “polymerase ribozyme fitness (log ratio)” value is at most -4.2. Next, C35A A52C U77C A147C: at most -4.2.

In the case of C35G A89U C93U C95U, the “polymerase ribozyme fitness (log ratio)” value is at most -4.2. With C35A G83C A107G C114G, the “polymerase ribozyme fitness (log ratio)” value was at most -4.2. For U33G G74A C76A G84U U144A the value was at most -4.2; for C36U U53G U56A G80C C85A C129U G140C, at most -4.2; for C35A C76A C93A U148C, at most -4.2.

As to A37C A41G C75G G94A, the “polymerase ribozyme fitness (log ratio)” value was at most -4.2. For C36A C96A G133A the value was at most -4.2; for A37C C72G G136U G141U U146G, at most -4.2.

On to C35U G94A C108A A150U, for which the “polymerase ribozyme fitness (log ratio)” value was at most -4.2. Regarding C35U A60C C79U U104G A106U, the “polymerase ribozyme fitness (log ratio)” value is at most -4.2. As for G34U C54U G71C C85A, the “polymerase ribozyme fitness (log ratio)” value was at most -4.2.

In the case of C35A C54G C72A C75A G84C C114U G133U A138G, the “polymerase ribozyme fitness (log ratio)” value was at most -4.2. As to C36G C93A A107C C129G U144G A147C A150U, the “polymerase ribozyme fitness (log ratio)” value was at most -4.2.

With C36G G50A C87U U102G G124U, the “polymerase ribozyme fitness (log ratio)” value is at most -4.2. For G34U G58A G59A C85U U101G A150G the value was at most -4.2. Next, C35U U55A A73U G88A A122U: at most -4.2. For C35U U61A C76A, the “polymerase ribozyme fitness (log ratio)” value is at most -4.2. Next, U33G G67A G81C C87U G100U A121G: at most -4.2; C35A A39G G141U: at most -4.2; C36A C105U U127G: at most -4.2.

As to A37C C57A C87A, the “polymerase ribozyme fitness (log ratio)” value was at most -4.2.

C35A A49C U56C G71A C72U G92A A115C: the “polymerase ribozyme fitness (log ratio)” value is -3.21. As for C35G U55A C85U A115C G141C, the “polymerase ribozyme fitness (log ratio)” value is at most -4.2. On to G34A C36G U127G U148C, for which the “polymerase ribozyme fitness (log ratio)” value was at most -4.2. As to G34A C87A G141A, the “polymerase ribozyme fitness (log ratio)” value is at most -4.2. Next, C35A G70A A89G G92A: at most -4.2.

Take C35U A113C C114A: the “polymerase ribozyme fitness (log ratio)” value is at most -4.2.

Consider C36G G83U C125A G141C U145A, for which the “polymerase ribozyme fitness (log ratio)” value is -4.09. Next, G34C A41G C54A U135C U145G: at most -4.2. For C35G U55G C85G U144A, the “polymerase ribozyme fitness (log ratio)” value is at most -4.2. C35U C85A C105U U109G G141A G143U U146A A147U U148C: the “polymerase ribozyme fitness (log ratio)” value is at most -4.2. For A37C G59A A66C G67A G68U G83A C96G G117A, the “polymerase ribozyme fitness (log ratio)” value is at most -4.2. Next, A37C A52U C96A: -2.87; C36A G46A C96U U148A: at most -4.2. In the case of G34U C57A G74C G86U G100A C118G, the “polymerase ribozyme fitness (log ratio)” value was at most -4.2. For the variant C36U U61A C96U G112C A142C, the “polymerase ribozyme fitness (log ratio)” value is at most -4.2. Regarding C35G G50A G58A A66C C75A C87U, the “polymerase ribozyme fitness (log ratio)” value is at most -4.2. As to A37C A49C A52U C96U C114U G136A G140C, the “polymerase ribozyme fitness (log ratio)” value was at most -4.2.

With G34A C95U G136A, the “polymerase ribozyme fitness (log ratio)” value was -0.0966. In the case of A37C A49C G50U G86A G124A, the “polymerase ribozyme fitness (log ratio)” value was at most -4.2. Next, C35U G46C C72U G74U C96U A107G: at most -4.2. With C36A G80C A91C C125G G133C A150U, the “polymerase ribozyme fitness (log ratio)” value is at most -4.2. U33G G58U A91C G143U: the “polymerase ribozyme fitness (log ratio)” value was -3.87. U33G U44A G81A A115C U144A: the “polymerase ribozyme fitness (log ratio)” value is at most -4.2.
